Each structure is given as a SMILES string. The whole screen tested about 45,000 compounds, of which about 65 (0.1%) were called active. Calls come from the whole dose curve; as a rule, active = well fitted activation curve with a large enough effect; inconclusive = small, poorly fitted or top-dose-only effect; inactive = no such curve, though single readings can be large or run the other way. Some of the results follow.

Chain of UniProt P54803 (P54803 whole entry, looked up): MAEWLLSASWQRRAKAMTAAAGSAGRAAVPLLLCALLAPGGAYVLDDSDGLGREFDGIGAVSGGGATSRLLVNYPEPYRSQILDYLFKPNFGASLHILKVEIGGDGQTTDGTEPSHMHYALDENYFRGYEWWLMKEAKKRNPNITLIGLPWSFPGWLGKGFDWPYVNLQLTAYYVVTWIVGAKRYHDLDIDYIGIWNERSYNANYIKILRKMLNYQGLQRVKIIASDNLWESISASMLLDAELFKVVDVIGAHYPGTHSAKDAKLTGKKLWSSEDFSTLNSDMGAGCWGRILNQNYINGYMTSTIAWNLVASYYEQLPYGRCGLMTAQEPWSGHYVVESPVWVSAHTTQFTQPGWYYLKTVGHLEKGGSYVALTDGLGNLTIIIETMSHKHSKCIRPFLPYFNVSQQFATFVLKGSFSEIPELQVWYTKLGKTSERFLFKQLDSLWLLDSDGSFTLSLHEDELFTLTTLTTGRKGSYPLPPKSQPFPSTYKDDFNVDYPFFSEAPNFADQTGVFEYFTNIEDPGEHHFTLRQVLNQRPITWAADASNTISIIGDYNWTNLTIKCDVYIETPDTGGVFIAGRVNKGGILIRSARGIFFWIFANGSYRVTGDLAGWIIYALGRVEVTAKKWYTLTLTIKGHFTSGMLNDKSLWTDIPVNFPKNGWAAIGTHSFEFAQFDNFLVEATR

The test has as its target Galactocerebrosidase (Homo sapiens) (UniProt P54803). In words: A Novel Cell-Based Assay to Identify Small Molecules for B -Galactocerebrosidase. Note: 0% is about no effect; nearly all actives have a fitted effect of over 65% in size. The note with it: 145M-Twi-hGALC-G270D cells, HMU-beta-Gal fluorescence, 48 h; series mostly up to 57.5 µM; activation: at the top concentration. In outline:
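qHTS, 1536-well; 145M-Twi-hGALC-G270D cells (WT line also made) in DMEM/F12 + 10% FBS; compound incubation on live cells; HMU-β-gal 0.1 mM final, pH 5.2, NaTC; carbonate stop; fluorescence increase = enhanced residual activity.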
As to `CCOC(=O)c1ccc(NC(=O)C2(S(=O)(=O)c3ccc(Cl)cc3)CC2)cc1`, the “activation” value was inactive: -1.65%.
For `COc1cccc(CNC(=O)CSC2=Nc3ccccc3C3=NC(C(C)C)C(=O)N23)c1` (stereo not given) the value was inactive: -27.2%.
For `Cc1ccccc1NC(=O)CCC(=O)N1CC(C)Sc2ccccc21` (stereo not given) the value was inactive: -6.62%; for `O=C(Nc1cccc(Cl)c1Cl)c1cc(S(=O)(=O)NCCc2ccccc2)ccc1F`, inactive: 20.3%; for `O=C(CN1C(=O)C2(SCC(=O)N2c2ccccc2)c2ccccc21)NCc1ccccc1` (stereo not given), inactive: -12.4%.
Turning to `NC(=O)CSc1ncc2c(n1)-c1ccccc1N(Cc1ccc(Cl)cc1)S2(=O)=O`, the “activation” value is inactive: -25.2%.
Next, `COc1ccccc1C(=O)Nc1cccc(C(=O)OCc2cc(=O)n3nc(C)sc3n2)c1`: inactive: -13.2%; `Cc1c(Cl)cccc1NC(=O)Cn1nnc2sc3c(c2c1=O)CCCC3`: inactive: -9.53%; `O=C(c1cc2ccc3cccnc3c2[nH]1)N1CCN(c2ccc(Cl)cc2)CC1`: inactive: -13.5%.
For `O=C(NCc1ccc2c(c1)CCN2C(=O)c1ccc(F)cc1)c1ccco1` the value was inactive: -17.9%; for `Cc1nn(CC(=O)Nc2cc(F)ccc2F)c(=O)c2cccn12`, inactive: -8.07%.
For `CC(C)(C)c1ccccc1NC(=O)CSc1nc(-c2cccs2)cc(C(F)(F)F)n1`, the “activation” value was inactive: -2.98%.
For `Cc1cc(Nc2ccc(Cl)cc2C)nc(-n2nc(C)cc2C)n1` the value was inactive: -4.16%; for `CC(C)c1noc(-c2ccccc2OCC(=O)Nc2ccccc2[N+](=O)[O-])n1`, inactive: -11.3%.
For `CCC(NC(=O)Nc1cc(OC)ccc1OC)c1c(-n2cccc2)sc2c1CCN(CC)C2` (stereo not given) the value was inactive: -30.3%; for `CCN(C(=O)c1cc2c(=O)n3cccc(C)c3nc2s1)c1ccc(C)c(C)c1`, inactive: 8.79%.
For `Cc1c(CNC2CCCCC2)c(C(=O)O)c(C)n1Cc1ccc(F)cc1` the value was inactive: -5.75%.
As to `CCOc1ccc(C(=O)Nc2ccc(-n3nncc3-c3ccccc3)cc2)cc1OCC`, the “activation” value was inactive: -6.14%.
For `CCC(=O)Nc1ccc2nc3c(=O)n(C)c(=O)n(C)c3nc2c1` the value was inactive: -6.15%; for `CCOC(=O)c1c(NC(=O)CSc2cn(CCNC(=O)c3ccccc3OC)c3ccccc23)sc2c1CCC2`, inactive: -6.78%.
Next, `CC(C)c1nc2n(n1)C1(CCCCC1)[C@@H]1CCCC[C@@H]1N2`: inactive: -6.96%; `COc1cccc(CNC(=O)C2(c3cccs3)CCOCC2)c1`: inactive: -13.7%; `CCCCCC(=O)Nc1ccc(NC(=O)c2cc3ccccc3o2)c(OC)c1`: inactive: 3.03%.
For `O=C(CSc1nc2c([nH]c3ccccc32)c(=O)n1-c1cccc(Cl)c1)N1CCOCC1` the value was inactive: -6.38%; for `Cc1oc(-c2cccc(Cl)c2)nc1CN1CCCC(C(=O)N2CCN(c3ccc(F)cc3)CC2)C1` (stereo not given), inactive: -9.3%.
`Cc1cccc(Cn2c(C)c(CNC3CCCCCC3)c(C(=O)O)c2C)c1`: the “activation” value was inactive: -15.5%.
For the compound `COc1c(Cl)cc(C(=O)N(Cc2ccc(C)o2)C2CCS(=O)(=O)C2)cc1Cl` (stereo not given), the “activation” value is inactive: -9.89%.
Consider `O=C(Cn1c(=O)c2ccccc2n(CC(=O)Nc2ccc(F)cc2)c1=O)NCCc1ccccc1`, for which the “activation” value is inactive: 11.3%.
Next, `CCOc1ccc(-n2c(CC)nc3c(cnn3-c3ccc(Cl)cc3)c2=O)cc1`: inactive: -8.13%.
In the case of `COc1ccc(-c2nc3c4ccccc4n(CC(=O)N4CCN(c5ccc(F)cc5)CC4)c(=O)n3n2)cc1`, the “activation” value was inactive: -7.86%.
For `Cc1ccc(C(=O)c2oc3ccccc3c2NC(=O)COc2ccccc2Cl)cc1` the value was inactive: -16.6%; for `COc1cccc(NC(=O)Cn2c(=O)n(CCc3ccccc3)c(=O)c3c4c(sc32)CN(C(C)=O)CC4)c1`, inactive: -13.2%.
Regarding `Cc1cc(C)n(-c2nc3ccccc3nc2N2CCN(c3cccc(C)c3C)CC2)n1`, the “activation” value was inactive: -4.73%.
For `CCOC(=O)c1cc2c(=O)n3ccccc3nc2n(CC2CCCO2)c1=NC(=O)c1ccc(OC)cc1OC` (stereo not given) the value was inactive: -9.45%; for `CCOc1ccc(NC(=O)NCc2ccc3c(c2)CCN3C(C)=O)cc1`, inactive: 3.84%.
For `CCCNC(=O)C(CC)n1nc(CC)n2c(cc3oc(C)cc32)c1=O` (stereo not given) the value was inactive: -11.5%.
For `CCCN(CCC)CCCNC(=O)Cn1cc2c(n1)-c1c(oc(C(=O)N3CCCC3)c1C)CC2` the value was inactive: -2.77%.
On to `CCOC(=O)N1CCc2c(sc3c2C(=O)NC(c2cc(OC)c(O)c(OC)c2)N3)C1` (stereo not given), for which the “activation” value is inactive: -12%.
Next, `COc1cccc(C(=O)c2cn(CC(=O)NCCc3ccccc3)c3nc(C)ccc3c2=O)c1`: inactive: -6.63%; `CCCCC(CC)CNC(=O)c1ccc(Cn2c(=O)[nH]c3cc(OC)c(OC)cc3c2=O)cc1` (stereo not given): inactive: 0.451%.
With `CCOc1ccccc1NC(=O)CSc1nnc(CC)c(CC)n1`, the “activation” value was inactive: -15.1%.
For `COc1ccc(-c2nn(C)c3sc(C(=O)Nc4cc(OC)c(OC)c(OC)c4)cc23)cc1OC` the value was inactive: -38.9%; for `CCCN(C(=O)c1c(C)oc2ncn(CC(C)C)c(=O)c12)c1ccccc1C`, inactive: -12%.
For `CCCCC(=O)OCC(=O)[C@H]1[C@H](C)C[C@H]2[C@@H]3C[C@H](F)C4=CC(=O)C=C[C@]4(C)[C@@]3(F)[C@@H](O)C[C@@]21C`, the “activation” value is inactive: -12.1%.
For `CCN1c2ccccc2-c2nc(SCC(=O)Nc3cc(OC)cc(OC)c3)ncc2S1(=O)=O` the value was inactive: -2.64%; for `CC(C)n1c(SCC(=O)c2ccc(F)cc2)nc2c(sc3ccccc32)c1=O`, inactive: -9.05%.
For `Cc1cccc2nc(Cn3c(=O)n(-c4ccccc4)c(=O)c4c5c(sc43)CCC5)cc(=O)n12` the value was inactive: -20.6%.
Consider `COc1ccc(CCNC(=O)c2c(Nc3ccccc3C)sc(C(=O)c3ccccc3)c2N)cc1OC`, for which the “activation” value was inactive: -13.7%.
For `COc1ccccc1OCCCn1c(C2CC(=O)N(c3ccc(F)cc3)C2)nc2ccccc21` (stereo not given) the value was inactive: -1.42%.
For `COc1cccc(CNC(=O)c2cc3cc(C)ccc3n2C)c1` the value was inactive: -11.7%; for `Cc1ccccc1OCC(=O)Nc1nnc(SCc2cc(=O)n3cccc(C)c3n2)s1`, inactive: -6.68%.
For `Cc1ccc(O)c(NC(=O)C2=CC(c3cccs3)=NS(=O)(=O)N2C)c1` the value was inactive: -15.8%; for `COc1cccc(CN2CCCN(Cc3ccc(F)cc3)S2(=O)=O)c1`, inactive: -6.03%.
For `CCCOc1ccc(C(=O)Nc2cc(-c3nc4ccccc4[nH]3)ccc2C)cc1`, the “activation” value is inactive: -16.6%.
Next, `CCN(CC)c1ccc(NC(=O)Cn2cc3c(n2)CCCC3)c(C)c1`: inactive: -15.6%; `CCc1ccc(NC(=O)CSc2nc3c([nH]c4ccccc43)c(=O)n2C)cc1`: inactive: -4.6%.
For `Cn1c(=O)n(C)c2cc(N3CCCCC3)c(NC(=O)Nc3ccc(Br)cc3)cc21` the value was inactive: -3.72%; for `Cc1ccc(-n2nc(C(=O)N3CCN(c4cc(C)ccc4C)CC3)c3c4ccccc4n(C)c3c2=O)cc1`, inactive: -17.1%; for `Cc1c(NC(=O)C(C)(C)C)cccc1-c1nc2ccccc2s1`, inactive: -13.7%.
For `Cn1cc(S(=O)(=O)N2CCc3ccccc32)cc1C(=O)Nc1ccc(C(F)(F)F)cc1`, the “activation” value is inactive: 2.04%.

The values above are taken from PubChem BioAssay AID1159614 (National Center for Advancing Translational Sciences (NCATS), 2016).
